In PubChem BioAssay (NCI) one finds TGI and GI50 data, which are given here for 3 compounds.

Common to all, as to assay: inhibition of tumour cell growth, NCI panel, 48 h
In assay [1] the test system is UACC-257 melanoma.
Assay [2] concerns NCI-H226 lung.
For assay [3], the system named is SF-539 CNS.
For assay [4], the system named is SK-MEL-2 melanoma.
Assay [5] relates to HL-60(TB) leukemia.
Assay [6] has as its system MDA-MB-435.
The test system of assay [7] is K-562 leukemia.
Assay [8] deals with ACHN renal.
For assay [9], the system named is OVCAR-3 ovarian.
Assay [10] concerns COLO 205 colon.
The subject of assay [11] is NCI-H23 lung.
The subject of assay [12] is SF-268 CNS.
The subject of assay [13] is UACC-62 melanoma.
Assay [14] deals with HCC-2998 colon.
Assay [15] relates to HOP-62 NSCLC.
The subject of assay [16] is HS 578T breast.
Assay [17] deals with CCRF-CEM leukemia.
Assay [18] has as its system M14 melanoma.
In assay [19] the test system is DU-145 prostate.
Assay [20] relates to U251 CNS.
The test system of assay [21] is RXF 393 renal.
In assay [22] the test system is SN12C renal.
For assay [23], the system named is SF-295 CNS.
Assay [24] has as its system NCI-H522 lung.
Assay [25] concerns DLD-1 colon.
Assay [26] deals with SNB-75 CNS.
Assay [27] concerns MOLT-4 leukemia.
Assay [28] deals with PC-3 prostate.
The subject of assay [29] is SW-620 colon.
The test system of assay [30] is MALME-3M melanoma.
For assay [31], the system named is HCT-15 colon.
The subject of assay [32] is NCI/ADR-RES ovarian.
The test system of assay [33] is SK-MEL-5 melanoma.
Assay [34] concerns SR leukemia.
Assay [35] deals with SK-MEL-28 melanoma.
In assay [36] the test system is LOX IMVI melanoma.
For assay [37], the system named is KM12 colon.
Assay [38] relates to A498 renal.
For assay [39], the system named is RPMI-8226 leukemia.
In assay [40] the test system is MCF7 breast.
Assay [41] relates to HT29 colon.
Assay [42] relates to M19-MEL melanoma.
For assay [43], the system named is OVCAR-8 ovarian.
The test system of assay [44] is TK-10 renal.
Assay [45] relates to KM20L2 colon.
For assay [46], the system named is IGROV1 ovarian.
Assay [47] relates to A549 NSCLC.

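1) Cells in 96-well plates. 2) Compound, 48 h, 5 concentrations. 3) Linear interpolation between surrounding doses. 4) Unreached endpoint = highest concentration. Abbreviation: GI50, concentration required for 50% inhibition of growth.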 Not every entry of the source has a single result; some have several. The other results are left out here. There may be further records. For some of these results: A record mostly stands for its own series of concentrations, which the source does not state; some values may only mark the edge of a range. For some of these results: The records of an entry are repeats in other runs, samples, wells, individuals or studies. Marks in square brackets tell the records apart. The letters are not those of the source and start again with each entry.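 TGI denotes the concentration required for complete inhibition of growth.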

Turning to `COc1cc([C@@H]2c3cc4c(cc3[C@@H](OC3OC5COC(C)OC5C(O)C3O)[C@H]3COC(=O)[C@H]23)OCO4)cc(OC)c1O` (stereo not given in full), the TGI in assay [1] was 33.2 µM, 500 µM, 234 µM; in assay [2], 61.5, 17.2, 35.8, 23.2 µM; in assay [3], 62.1, 7.03, 10.3, 16.9 µM; in assay [4], 76.8, 18.5, 259, 70.4 µM; in [5], 18.2, 4.24, 2.68, 13.3 µM; in assay [7] it was 24.5 µM, 500 µM [1 test] and 292 µM [mean of 31 tests]. The TGI in assay [8] is 50.5 µM [1 test] and 6.36 µM [mean of 6 tests] and > 81.8 µM [mean of 7 tests]; in assay [9] it was > 94.7 µM, 39.2 µM, 61.1 µM, 145 µM; in assay [10], > 90.2 µM, 103 µM, 260 µM, 151 µM; in assay [11], > 81.4 µM, 10.7 µM, 30.6 µM, 43 µM; in assay [12] it was > 93.6 µM, 22.1 µM, 28.7 µM, 169 µM; in [13] it was > 97.2 µM, 17.6 µM, 19.6 µM, 57.1 µM. The TGI in assay [14] was 59.5, 12.3, 14.2, 31 µM; in assay [15], 65.2, 3.85, 16.4, 12.2 µM; in assay [16] it was 65.1 µM, 40.1 µM, 3.02 µM; in assay [17], 500 µM and 47.8 µM; in assay [18], 132 µM [1 test] and 6.33 µM [mean of 5 tests] and > 97.5 µM [mean of 6 tests]; in assay [19], 23.3 µM, 500 µM, 3.83 µM. For the same compound, the TGI in [20] is > 72.6 µM, 111 µM, 500 µM, 29.2 µM; in assay [21], 67.1, 29.7, 10.8, 79.3 µM; in assay [22], 57.2, 37, 18, 45.1 µM; in [23] it was > 85.1 µM, 60.9 µM, 32.5 µM, 47.7 µM; in [24] it was 71.9, 18.6, 187, 35.5 µM; in [25] it was 17.1 µM and 278 µM. Also, the TGI in assay [26] was > 77.4 µM, 9.95 µM, 12.3 µM, 93.3 µM; in assay [27], 66, 1.5, 13.1, 17.7 µM; in assay [28], 500 µM and 3.66 µM. For the same compound, the GI50 in assay [6] is 335 nM [1 test] and 14.2 µM [mean of 2 tests].

`COc1cc2c3c(c4cc(OC)c(OC)cc4c2cc1OC)CN1CCC[C@H]1C3`: the TGI in [4] is 599 nM [sample A, 1 test] and < 30.7 nM [sample B, mean of 2 tests]; in [5], > 10 µM [sample A, 1 test] and 600 nM [sample B, mean of 2 tests]; in assay [10] it was 543 nM [sample A, 1 test] and 36.7 nM [sample B, mean of 2 tests]; in assay [12], 231 nM [sample A, 1 test] and 7.83 µM [sample B, mean of 2 tests]; in assay [13], > 10 µM [sample A, 1 test] and 481 nM [sample B, mean of 2 tests]; in [29], 4.43 µM [sample A, 1 test] and > 100 µM [sample B, mean of 2 tests]. Also, the TGI in [30] was 92.8 nM [sample A, 1 test] and 2.68 µM [sample B, mean of 2 tests]; in [31], 2.22 µM [sample A, 1 test] and > 100 µM [sample B, 1 test]; in [32], 4.13 µM [sample A, 1 test] and > 100 µM [sample B, 1 test]; in [33] it was 1.52 µM [sample A, 1 test] and 113 nM [sample B, mean of 2 tests]; in assay [23], 1.4 µM [sample A, 1 test] and 76 nM [sample B, mean of 2 tests]; in [34] it was 3.12 µM [sample A, 1 test] and 47.5 µM [sample B, mean of 2 tests]. In addition, the TGI is 78.5 nM [sample A] and 6.08 µM [sample B] in assay [35]; > 10 µM [sample A, 1 test] and 166 nM [sample B, 1 test] in [28]. Moreover, the GI50 in assay [7] is 377 nM [sample A, 1 test] and < 10 nM [sample B, mean of 2 tests]; in assay [13] it was 164 nM [sample A, 1 test] and < 16 nM [sample B, mean of 2 tests]; in assay [30], 19.8 nM [sample A, 1 test] and 364 nM [sample B, mean of 2 tests]; in [28] it was 259 nM [sample A, 1 test] and 12.6 nM [sample B, 1 test].

Turning to `CC1OC(O[C@@H]2C=C3CC[C@@H]4[C@H](CC[C@]5(C)[C@@H](c6ccc(=O)oc6)CC[C@]45O)[C@@]3(C)CC2)C(O)C(O)C1O` (stereo not given in full), the TGI was 3 nM, 0.697 nM, 300 nM in assay [36]; 3 nM and 30.7 nM in assay [37]; 0.0295 nM [1 test] and 2.07 nM [mean of 2 tests] in assay [5]; 3 nM and 33.4 nM in assay [38]; 3 nM, 0.579 nM, 97.8 nM in assay [7]; 3 nM, 1.98 nM, 31.4 nM in assay [39]. In addition, the TGI is 38.7 nM [1 test] and 2.61 nM [mean of 2 tests] in [11]; 3 nM, 32 nM, 32.2 nM in [40]; 0.179 nM [1 test] and 3 nM [mean of 2 tests] in assay [15]; 3 nM and 30.1 nM in assay [17]; 3 nM and 300 nM in assay [41]; 3 nM and 40.4 nM in [42]. The TGI was 3 nM, 12.5 nM, 35.8 nM in assay [43]; 3 nM, 15.1 nM, 30.3 nM in assay [29]; 3 nM, 11.9 nM, 32.2 nM in assay [20]; 3 nM, 16.4 nM, 64.3 nM in [31]; 3 nM and 32.4 nM in assay [45]; 6.65 nM, 0.448 nM [1 test] and 3 nM [mean of 2 tests] in assay [24]. The TGI was 3 nM, 17.5 nM, 67.2 nM in assay [46]; 3 nM and 106 nM in assay [35]; 0.0224 nM [1 test] and 1.76 nM [mean of 2 tests] in [47]. Also, the GI50 in assay [19] was 4.83 nM and 0.0298 nM; in [44], 3.73 nM and 0.0198 nM; in assay [27] it was 4.15 nM [1 test] and 0.365 nM [mean of 2 tests].
